Laboratory results from patent US10299477B2 (priority 2015, dated 2019).

Experiments:
Type in all cases: in vivo
[1] = test system: Blumeria graminis f sp. hordei; test: Test Example D: Powdery mildew on barley; conditions: for Test D (control value class, powdery mildew on barley): in vivo; for Test D control value (powdery mildew on barley): preventive, control value class
From the text: [Test Example D] Powdery Mildew on Barley
After the sprayed dilutions were dried, conidia of Blumeria graminis f sp. hordei were inoculated to the plants by shaking off.

Plasmopara viticola = test: Test Example G: Downy mildew on vine; conditions: for Test G (control value class, downy mildew on vine): 250 ppm, sprayed 2.5 ml/pot before inoculation; for Test G (control value class): 250 ppm spray; for Test G control value (downy mildew on vine): 250 ppm spray (2.5 ml/pot), preventive, control value class; for Test G control value: 250 ppm sprayed before inoculation
From the text: [Test Example G] Downy Mildew on Vine
Seeds of a test plant (grape variety: Neomuscat) were planted followed by cultivating until three to four first leaves appeared. […] After the sprayed dilutions were dried, a zoosporangia suspension (1-2×10^4 zoosporangia/ml) of Plasmopara viticola was inoculated to the plants by spraying.

Botrytis cinerea = test: Test Example B: Gray mold on tomato; conditions: for Test B (control value class, gray mold on tomato): in vivo; for Test B control value (gray mold on tomato): preventive, control value class
From the text: [Test Example B] Gray Mold on Tomato
Seeds of a test plant (tomato variety: Oogata Fukuju) were planted followed by cultivating until three to five first leaves (true leaves) appeared.

Alternaia brassicicola = test: Test Example C: Alternaria sooty spot on cabbage; conditions: for Test C (control value class, Alternaria sooty spot on cabbage): in vivo; for Test C (control value class) / Test C control value: Alternaria sooty spot on cabbage; for Test C control value (Alternaria sooty spot on cabbage): preventive, control value class
From the text: [Test Example C] Alternaria Sooty Spot on Cabbage
Seeds of a test plant (cabbage variety: Shikidori) were planted followed by cultivating until the cotyledons extended.

Puccinia recondita = test: Test Example E: Brown rust on wheat; conditions: for Test E (control value class, brown rust on wheat): in vivo; for Test E control value (brown rust on wheat): preventive, control value class
From the text: [Test Example E] Brown Rust on Wheat

[2] = evaluated 7-10 days after inoculation
[3] = powdery mildew on barley, 250 ppm spray
[4] = downy mildew on vine, Plasmopara viticola, 7-10 days after inoculation
[5] = gray mold on tomato, Botrytis cinerea, 250 ppm spray
[6] = brown rust on wheat, Puccinia recondita, 250 ppm spray
[7] = Powdery mildew on barley, control value=100{1-(n/3)}
[8] = Downy mildew on vine, 2.5 ml/pot, evaluated 7-10 days after inoculation
[9] = Gray mold on tomato, control value=100{1-(n/3)}
[10] = Brown rust on wheat, control value=100{1-(n/3)}
[11] = Downy mildew on vine, 7-10 days after inoculation

## CCn1c(-c2c(F)cc(F)cc2F)c(-c2ccc(OC)cc2Cl)ccc1=O [Compound 742]
[1]
  Test D (control value class, powdery mildew on barley): H (H shows more than 50% of control values)
Plasmopara viticola; [2]
  Test G (control value class, downy mildew on vine): H (H shows more than 50% of control values)
Botrytis cinerea
  Test B (control value class, gray mold on tomato): H (H shows more than 50% of control values)
Alternaia brassicicola
  Test C (control value class, Alternaria sooty spot on cabbage): H (H shows more than 50% of control values)
Puccinia recondita
  Test E (control value class, brown rust on wheat): H (H shows more than 50% of control values)

## CCCCn1c(-c2c(F)cccc2F)c(-c2cc(OC)ccc2Cl)cc(Cl)c1=O [Compound 395]
[1]; [3]
  Test D (control value class): L (L shows 50% or less of control values)
Plasmopara viticola; [4]
  Test G (control value class): L (L shows 50% or less of control values)
Botrytis cinerea; [5]
  Test B (control value class): L (L shows 50% or less of control values)
Alternaia brassicicola; 250 ppm spray
  Test C (control value class): L (L shows 50% or less of control values)
Puccinia recondita; [6]
  Test E (control value class): L (L shows 50% or less of control values)

## CCn1c(-c2c(F)cc(OC)cc2F)c(-c2cc(F)cc(F)c2Br)cc(Br)c1=O [Compound 820]
[1]; [7]
  Test D (control value class): H (H shows more than 50% of control values)
Plasmopara viticola; [8]
  Test G (control value class): H (H shows more than 50% of control values)
Botrytis cinerea; [9]
  Test B (control value class): H (H shows more than 50% of control values)
Alternaia brassicicola; control value=100{1-(n/3)}
  Test C (control value class): H (H shows more than 50% of control values)
Puccinia recondita; [10]
  Test E (control value class): H (H shows more than 50% of control values)

## Cn1c(-c2c(F)cccc2F)c(-c2cc(OCCC[Si](C)(C)C)ccc2Cl)ccc1=O [Compound 276]
[1]; 250 ppm spray
  Test D control value (powdery mildew on barley): L (L shows 50% or less of control values)
Plasmopara viticola; 7-10 days after inoculation
  Test G control value (downy mildew on vine): L (L shows 50% or less of control values)
Botrytis cinerea; 250 ppm spray
  Test B control value (gray mold on tomato): L (L shows 50% or less of control values)
Alternaia brassicicola; 250 ppm spray
  Test C control value (Alternaria sooty spot on cabbage): H (H shows more than 50% of control values)
Puccinia recondita; 250 ppm spray
  Test E control value (brown rust on wheat): L (L shows 50% or less of control values)

## COc1cc(OC)cc(-c2ccc(=O)n(C)c2-c2c(F)cccc2Br)c1 [Compound 183]
[1]; Powdery mildew on barley
  Test D control value: L (L shows 50% or less of control values)
Plasmopara viticola; [11]
  Test G control value: L (L shows 50% or less of control values)
Botrytis cinerea; Gray mold on tomato
  Test B control value: H (H shows more than 50% of control values)
Alternaia brassicicola
  Test C control value: L (L shows 50% or less of control values)
Puccinia recondita; Brown rust on wheat
  Test E control value: H (H shows more than 50% of control values)

## CN1C(=O)CCC(c2cc(F)ccc2Cl)=C1c1c(F)cccc1F [Compound 357]
[1]; 250 ppm spray
  Test D control value (powdery mildew on barley): H (H shows more than 50% of control values)
Plasmopara viticola; 7-10 days after inoculation
  Test G control value (downy mildew on vine): H (H shows more than 50% of control values)
Botrytis cinerea; 250 ppm spray
  Test B control value (gray mold on tomato): H (H shows more than 50% of control values)
Alternaia brassicicola; 250 ppm spray
  Test C control value (Alternaria sooty spot on cabbage): H (H shows more than 50% of control values)
Puccinia recondita; 250 ppm spray
  Test E control value (brown rust on wheat): H (H shows more than 50% of control values)

## CCn1c(-c2c(F)cc(OC)cc2F)c(-c2ccccc2F)cc(Cl)c1=O [Compound 531]
[1]; [3]
  Test D (control value class): H (H shows more than 50% of control values)
Plasmopara viticola; [4]
  Test G (control value class): L (L shows 50% or less of control values)
Botrytis cinerea; [5]
  Test B (control value class): H (H shows more than 50% of control values)
Alternaia brassicicola; 250 ppm spray
  Test C (control value class): H (H shows more than 50% of control values)
Puccinia recondita; [6]
  Test E (control value class): H (H shows more than 50% of control values)

## CCn1c(-c2c(F)cc(F)cc2F)c(-c2ccccc2F)cc(F)c1=O [Compound 568]
[1]
  Test D (control value class, powdery mildew on barley): H (H shows more than 50% of control values)
Plasmopara viticola; [2]
  Test G (control value class, downy mildew on vine): H (H shows more than 50% of control values)
Botrytis cinerea
  Test B (control value class, gray mold on tomato): H (H shows more than 50% of control values)
Alternaia brassicicola
  Test C (control value class, Alternaria sooty spot on cabbage): H (H shows more than 50% of control values)
Puccinia recondita
  Test E (control value class, brown rust on wheat): H (H shows more than 50% of control values)

## Cc1ccc(-c2ccc(=O)n(C)c2-c2c(F)cccc2F)cc1 [Compound 270]
[1]; 250 ppm spray
  Test D control value (powdery mildew on barley): H (H shows more than 50% of control values)
Plasmopara viticola; 7-10 days after inoculation
  Test G control value (downy mildew on vine): L (L shows 50% or less of control values)
Botrytis cinerea; 250 ppm spray
  Test B control value (gray mold on tomato): H (H shows more than 50% of control values)
Alternaia brassicicola; 250 ppm spray
  Test C control value (Alternaria sooty spot on cabbage): H (H shows more than 50% of control values)
Puccinia recondita; 250 ppm spray
  Test E control value (brown rust on wheat): H (H shows more than 50% of control values)

## CN1C(=O)CCC(c2ccc(F)cc2Cl)=C1c1c(F)cc(F)cc1F [Compound 574]
[1]
  Test D (control value class, powdery mildew on barley): H (H shows more than 50% of control values)
Plasmopara viticola; [2]
  Test G (control value class, downy mildew on vine): H (H shows more than 50% of control values)
Botrytis cinerea
  Test B (control value class, gray mold on tomato): H (H shows more than 50% of control values)
Alternaia brassicicola
  Test C (control value class, Alternaria sooty spot on cabbage): H (H shows more than 50% of control values)
Puccinia recondita
  Test E (control value class, brown rust on wheat): H (H shows more than 50% of control values)

## C#CCn1c(-c2c(F)cccc2F)c(-c2cc(OC)ccc2Cl)ccc1=O [Compound 458]
[1]; [3]
  Test D (control value class): L (L shows 50% or less of control values)
Plasmopara viticola; [4]
  Test G (control value class): L (L shows 50% or less of control values)
Botrytis cinerea; [5]
  Test B (control value class): H (H shows more than 50% of control values)
Alternaia brassicicola; 250 ppm spray
  Test C (control value class): L (L shows 50% or less of control values)
Puccinia recondita; [6]
  Test E (control value class): L (L shows 50% or less of control values)

## CCn1c(-c2c(F)cccc2F)c(-c2cccc(F)c2Cl)cc(C)c1=O [Compound 752]
[1]; [7]
  Test D (control value class): H (H shows more than 50% of control values)
Plasmopara viticola; [8]
  Test G (control value class): H (H shows more than 50% of control values)
Botrytis cinerea; [9]
  Test B (control value class): H (H shows more than 50% of control values)
Alternaia brassicicola; control value=100{1-(n/3)}
  Test C (control value class): H (H shows more than 50% of control values)
Puccinia recondita; [10]
  Test E (control value class): H (H shows more than 50% of control values)

## CCn1c(-c2c(F)cc(F)cc2F)c(-c2cc(F)cc(F)c2F)cc(Cl)c1=O [Compound 465]
[1]; [3]
  Test D (control value class): H (H shows more than 50% of control values)
Plasmopara viticola; [4]
  Test G (control value class): L (L shows 50% or less of control values)
Botrytis cinerea; [5]
  Test B (control value class): H (H shows more than 50% of control values)
Alternaia brassicicola; 250 ppm spray
  Test C (control value class): H (H shows more than 50% of control values)
Puccinia recondita; [6]
  Test E (control value class): H (H shows more than 50% of control values)

## CC(=O)COc1ccc(Cl)c(-c2ccc(=O)n(C)c2-c2c(F)cccc2F)c1 [Compound 304]
[1]; 250 ppm spray
  Test D control value (powdery mildew on barley): H (H shows more than 50% of control values)
Plasmopara viticola; 7-10 days after inoculation
  Test G control value (downy mildew on vine): L (L shows 50% or less of control values)
Botrytis cinerea; 250 ppm spray
  Test B control value (gray mold on tomato): H (H shows more than 50% of control values)
Alternaia brassicicola; 250 ppm spray
  Test C control value (Alternaria sooty spot on cabbage): H (H shows more than 50% of control values)
Puccinia recondita; 250 ppm spray
  Test E control value (brown rust on wheat): H (H shows more than 50% of control values)

## CCn1c(-c2c(F)cccc2F)c(-c2cc(OCC3CCCC3)ccc2Cl)ccc1=O [Compound 323]
[1]; 250 ppm spray
  Test D control value (powdery mildew on barley): H (H shows more than 50% of control values)
Plasmopara viticola; 7-10 days after inoculation
  Test G control value (downy mildew on vine): L (L shows 50% or less of control values)
Botrytis cinerea; 250 ppm spray
  Test B control value (gray mold on tomato): L (L shows 50% or less of control values)
Alternaia brassicicola; 250 ppm spray
  Test C control value (Alternaria sooty spot on cabbage): H (H shows more than 50% of control values)
Puccinia recondita; 250 ppm spray
  Test E control value (brown rust on wheat): L (L shows 50% or less of control values)

## CN1C(=O)CCC(c2ccccc2)=C1c1ncc(Cl)cc1Cl [Compound 1]
[1]; Powdery mildew on barley
  Test D control value: H (H shows more than 50% of control values)
Plasmopara viticola; [11]
  Test G control value: L (L shows 50% or less of control values)
Botrytis cinerea; Gray mold on tomato
  Test B control value: H (H shows more than 50% of control values)
Alternaia brassicicola
  Test C control value: H (H shows more than 50% of control values)
Puccinia recondita; Brown rust on wheat
  Test E control value: H (H shows more than 50% of control values)
